The text below walks through data of US20210340213A1.

B1: CTLA4-Ig variant 132# (Fc fusion)
chain: MHVAQPAVVLASSRGIASFVCEYESPHKANEIRVTVLRQANSQVTEVCAMTYMKGDELTFLDDPSCTGTFSGNQVNLTIQGLRAADTGLYICKVELMYPPPYYLGFGNGTQIYVIDPEPCPDSDQ[human IgG1 Fc with changes not given here]
B2: CTLA4-Ig variant 99# (Fc fusion)
chain: MHVAQPAVVLASSRGIASFVCEYASPDKATEVRVTVLRQADSQVTEVCAATYMMGNELTFLDDSICTFTSSGNQVNLTIQGLRAMDTGLYICKVELMYPPPYYLGIGNGTQIYVIDPEPCPDSDQ[human IgG1 Fc with changes not given here]
B3: CTLA4-Ig variant 95# (Fc fusion)
chain: MHVAQPAVVLASSRGIASFVCEYASPHKATEVRVTVLRQADSQVTEVCAATYMMGNELTFLDDSICTFTSSGNQVNLTIQGLRAMDTGLYICKVELMYPPPYYLGIGNGTQIYVIDPEPCPDSDQ[human IgG1 Fc with changes not given here]
B4: CTLA4-Ig variant 75# (Fc fusion)
chain: MHVAQPAVVLASSRGIASFVCEYASPDKAKATEVRVTVLRQADSQVTEVCAATYMMGNELTFLDDSICTFTSSGNQVNLTIQGLRAMDTGLYICKVELMYPPPYYLGIGNGTQIYVIDPEPCPDSDQ[human IgG1 Fc with changes not given here]
B5: CTLA4-Ig variant 133# (Fc fusion)
chain: MHVAQPAVVLASSRGIASFVCEYASPDKAKATEVRVTVLRQADSQVTEVCAATYMMGNELTFLDDSICTFTSSGNQVNLTIQGLRAMDTGLYICMVELMYPPPYYLGIGNGTQIYVIDPEPCPDSDQ[human IgG1 Fc with changes not given here]
B6: CTLA4-Ig variant 112# (Fc fusion)
chain: MHVAQPAVVLASSRGIASFVCEYASPDKAKATEVRVTVLRQTDSQVTEVCAATYMMGNELTFLDDSICTFTSSGNQVNLTIQGLRAMDTGLYICKVELMYPPPYYLGIGNGTQIYVIDSEPCPDSDQ[human IgG1 Fc with changes not given here]
B7: CTLA4-Ig variant 131# (Fc fusion)
chain: MHVAQPAVVLASSRGIASFVCEYASPDKAKATEVRVTVLRQTDSQVTEVCAATYMMGNELTFLDDSICTFTSSGNQVNLTIQGLRAMDTGLYICKVELMYPPPYYLGIGNGTQIYVIDPEPCPDSDQ[human IgG1 Fc with changes not given here]
B8: CTLA4-Ig variant 142# (Fc fusion)
chain: MHVAQPAVVLASSRGIASFVCEYASPDKAKATEVRVTVLRQTDSQVTEVCAATYMMGNELTFLDDSICTFTSSGNQVNLTIQGLRAMDTGLYICMVELMYPPPYYLGIGNGTQIYVIDPEPCPDSDQ[human IgG1 Fc with changes not given here]
B9: CTLA4-Ig variant 71# (Fc fusion)
chain: MHVAQPAVVLASSRGIASFVCEYASPDKAKATEVRVTVLRQADSQVTEVCAATYMMGNELTFLDDSICTGTSSGNQVNLTIQGLRAMDTGLYICKVELMYPPPYYLGIGNGTQIYVIDPEPCPDSDQ[human IgG1 Fc with changes not given here]
B10: CTLA4-Ig variant 118# (Fc fusion)
chain: MHVAQPAVVLASSRGIASFVCEYASPDKAKATEVRVTVLRQADSQVTEVCAATYMMGNELTFLDDSICTFTSSGNQVNLTIQGLRAMDTGLYICKVELMYPPPYYLGIGNGTQIYVIDSEPCPDSDQ[human IgG1 Fc with changes not given here]
B11: CTLA4-Ig variant 96# (Fc fusion)
chain: MHVAQPAVVLASSRGIASFVCEYASPDKKATEVRVTVLRQADSQVTEVCAATYMMGNELTFLDDSICTFTSSGNQVNLTIQGLRAMDTGLYICKVELMYPPPYYLGIGNGTQIYVIDPEPCPDSDQ[human IgG1 Fc with changes not given here]
B12: CTLA4-Ig variant 134# (Fc fusion)
chain: MHVAQPAVVLASSRGIASFVCEYASPDKKATEVRVTVLRQADSQVTEVCAATYMMGNELTFLDDSICTFTSSGNQVNLTIQGLRAMDTGLYICMVELMYPPPYYLGIGNGTQIYVIDPEPCPDSDQ[human IgG1 Fc with changes not given here]
B13: CTLA4-Ig variant 122# (Fc fusion)
chain: MHVAQPAVVLASSRGIASFVCEYASPDKKATEVRVTVLRQADSQVTEVCAATYMMGNELTFLDDSICTFTSSGNQVNVTIQGLRAMDTGLYICKVELMYPPPYYLGIGNGTQIYVIDPEPCPDSDQ[human IgG1 Fc with changes not given here]

The experiment deals with CD80/CD86 on the surface of Raji cells. The experiment can be described thus: cell-based or functional assay.
Molecule B1 returned an IC50 on IL2 secretion, Test III of 0.0989 µg/mL. As for B2, the IC50 on IL2 secretion, Test I is 1.67 µg/mL. The same measure, in the same setting: the result for B3 reads 0.104 µg/mL. With B4, the IC50 on IL2 secretion, Test I worked out at 0.0728 µg/mL; the IC50 on IL2 secretion, Test II came to 0.117 µg/mL; the IC50 on IL2 secretion, Test III was 0.0838 µg/mL. For the molecule B5, the IC50 on IL2 secretion, Test III amounted to 0.0264 µg/mL.

For the molecule B6, the IC50 on IL2 secretion, Test II was determined as 0.695 µg/mL. With B7, the IC50 on IL2 secretion, Test II is 0.0825 µg/mL and the IC50 on IL2 secretion, Test III was 0.0594 µg/mL. Take B8: the IC50 on IL2 secretion, Test III was 0.0188 µg/mL and the IC50 on IL2 secretion, Test IV was found to be 0.00971 µg/mL. With B9, the IC50 on IL2 secretion, Test I turned out to be 0.665 µg/mL. For B10, the IC50 on IL2 secretion, Test II came out at 0.414 µg/mL.

B11 registered an IC50 on IL2 secretion, Test II of 0.141 µg/mL.

B12 registered an IC50 on IL2 secretion, Test III of 0.0494 µg/mL. Consider B13, for which the IC50 on IL2 secretion, Test II was determined as 0.4 µg/mL.
